Measured values: PubChem BioAssay AID760 (NMMLSC, 2007)
Among all 190,000 compounds or so, about 360 (0.19%) were called active. Inconclusive results, whose numbers are uncertain, are shown with a selection of clear calls.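 How the source made its calls: active means GTP binding activity at least 20 points away from 100%, either lowered or raised; inconclusive means signal likely due to the compound's own green fluorescence; inactive means the rest.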

Each molecule was assayed against Ras-related protein Rab-2A (Canis lupus familiaris) (UniProt P61105) (assay: Rab2 wt fluorescent GTP binding changes, either direction – biochemical, dog, bead-based flow cytometry, multiplex, primary screen (AID 760;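 further: 0% = beads with excess unlabeled GTP and 100% = no-compound control corrected for plate trend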)). Details: GST-Rab2 wt beads, Bodipy-GTP binding, at 10 µM.

SMILES | GTP binding activity
Cc1c(NC(=O)c2ccc3c(c2)C(=O)N(Cc2ccco2)C3=O)cccc1C(=O)O | inconclusive: 84%
Fc1ccc(CNCc2ccccc2Cl)cc1 | inconclusive: 90%
Cc1cc(Cl)ccc1OCC(=O)NNC(=O)C1CCCO1 (centres undefined) | inactive: 98%
COc1ccc(S(=O)(=O)Nc2ccc(N3CCOCC3)nc2)cc1 | inactive: 94%
Cc1ccc(OCC(=O)Nc2ccc(N3CCN(C(=O)c4ccco4)CC3)cc2)cc1 | inconclusive: 92%
O=C(NC12CC3CC(CC(C3)C1)C2)N1CCN(C(=O)c2ccco2)CC1 | inconclusive: 94%
O=C(COC(=O)CCc1c[nH]c2ccccc12)Nc1ccc([N+](=O)[O-])cc1 | inconclusive: 91%
CCN(CC)CCn1c(=S)[nH]c2ccc(Cl)cc2c1=O | inconclusive: 98%
COc1ccccc1CNc1ccc(N2CCOCC2)c(C(=O)O)c1 | inactive: 101%
NC(=S)Nc1cccc2cc3ccccc3cc12 | inconclusive: 74%
CCNC(=S)NNC(=O)c1cccn(Cc2ccc(Cl)cc2)c1=O | inconclusive: 110%
CCc1cc(C(c2ccccc2OC)N2CCOCC2)c(NC(=O)c2ccccc2)s1 (centres undefined) | inconclusive: 103%
COc1ccc2nc(/C(C#N)=C\c3ccc(C(=O)O)cc3)[nH]c2c1 | inactive: 86%
CN(C)c1ccc(/C=N\NC(=O)CC#N)cc1 | inconclusive: 94%
O=c1c2ccccc2nc2c3ccccc3cnn12 | active: 77%
CCCCc1ccc(NC(=S)N2CCC(O)CC2)cc1 | inactive: 98%
COC(=O)c1cc(OC)c(OC)cc1NC(=O)c1ccccc1 | inconclusive: 102%
Cc1ccc(C(=O)c2ccccc2C(=O)O)cc1C | active: 124% [activator]
Cc1ccc(SCCC(=O)N2CCC(C(N)=O)CC2)cc1 | inconclusive: 95%
COC(=O)c1ccc(Oc2cc(C)nc(SC)n2)cc1 | inconclusive: 106%
NC(=O)c1cc2ccccc2o/c1=N/NC(=O)c1cccs1 | inconclusive: 70%
COc1ccc(C(=O)NNC(=O)CSc2nnc(COc3ccccc3OC)n2C)cc1 | inactive: 98%
COc1ccc(-c2cc(C(F)(F)F)c3c(n2)sc2c(O)cc(=O)[nH]c23)c(OC)c1 | active: 78%
C/C(=N\n1cnnc1)c1ccc(C#N)cc1 | inconclusive: 96%

SMILES | GTP binding activity
CC(C)(C)C(=O)CNS(=O)(=O)c1ccc(S(=O)(=O)NC2CCCC2)cc1 | inactive: 103%
c1ccc(-c2nc(NCCCn3ccnc3)c3oc4ccccc4c3n2)cc1 | inconclusive: 92%
O=C(CSc1nnc(-c2ccco2)o1)c1ccc[nH]1 | inconclusive: 94%
O=C(NCC1CCCO1)c1ccc(COc2ccccc2Br)cc1 (centres undefined) | inactive: 101%
COc1cc(C(=O)NCCc2ccc(S(=O)(=O)N3CCCC3)cc2)cc(OC)c1OC | inactive: 98%
COC(=O)CCC(=O)NNC(=O)Cc1ccccc1 | inactive: 102%
CC(C(=O)N1CCOCC1)N1C(=O)c2cccc3cccc(c23)C1=O (centres undefined) | inactive: 96%
Clc1cccc(Cc2nn[nH]n2)c1 | inactive: 99%
Clc1ccc(Cl)c(OCc2cc(-c3ccccc3Cl)on2)c1 | inconclusive: 104%
COC(=O)C1=C(C(=O)OC)C(c2cc([N+](=O)[O-])ccc2O)c2sc(=O)[nH]c2S1 (centres undefined) | inconclusive: 85%
O=C(Nc1ccccc1)N1CCCC(c2nc(-c3ccc(F)cc3)no2)C1 (centres undefined) | inconclusive: 101%
C=CCN(c1ccccc1)S(=O)(=O)c1cccc(C(=O)Oc2ccc3c(C)cc(=O)oc3c2)c1 | inconclusive: 102%
O=C(CSc1nc2ccccc2[nH]1)NC1CCS(=O)(=O)C1 (centres undefined) | inconclusive: 108%
C/C(=N\Nc1cccc([N+](=O)[O-])c1)c1ccccc1O | inconclusive: 95%
Cc1cc2oc(=O)cc(CN3CCN(S(=O)(=O)c4cccs4)CC3)c2cc1C | inactive: 102%
O=C1CC(c2ccccc2)CC(O)=C1C=NCCN1CCN(C(=O)Nc2ccccc2)CC1 (centres undefined) | inconclusive: 104%
O=C(NNC(=O)C1CCCN(S(=O)(=O)c2cccc(F)c2)C1)C1CC1 (centres undefined) | inconclusive: 93%
CCN1CCCC1CNC(=O)CSc1cc(=O)n(CC)c2ccccc12 (centres undefined) | inconclusive: 105%
O=[N+]([O-])c1ccc(/C=C/C2=NN(c3ccccc3)C(c3ccco3)C2)cc1 (centres undefined) | inconclusive: 153%
C/C=C/C=C/C(=O)OCC(=O)Nc1ccc(Cl)cc1 | inactive: 93%
O=C(CSc1ncnc2ccccc12)NCCc1ccccc1 | inconclusive: 94%
CC(C(=O)NC(C)(C)C)N(Cc1cccs1)C(=O)CCN1CCc2ccccc21 (centres undefined) | inactive: 99%
CCCNC(=O)COC(=O)/C=C/c1ccc(C)o1 | inactive: 101%
CCOC(=O)N1CCC(N2CCCC(CO)(Cc3cccc(Cl)c3)C2)CC1 (centres undefined) | inactive: 103%

SMILES | GTP binding activity
COc1ccc(CC(=O)c2ccccc2C(=O)O)cc1 | active: 130% [activator]
Cc1ccc(OCc2ccc(C(=O)Nc3ccc(C(N)=O)cc3)o2)c([N+](=O)[O-])c1 | inconclusive: 97%
COc1ccc(/C=C2\CCn3c2nc2cc(C(=O)O)ccc2c3=O)cc1O | inconclusive: 87%
CC1Cc2ccccc2N1CC(=O)NC(=O)NCc1ccco1 (centres undefined) | inconclusive: 94%
CCOc1ccccc1C(=O)Nc1nn[nH]n1 | inconclusive: 93%
CCCCC(=O)Nc1cccc(NC(=O)C(C)C)c1 | inconclusive: 101%
O=c1[nH]c(N2CCc3ccccc3C2)nc2c1CCC2 | inconclusive: 93%
Cc1cccc(NC(=O)CC2Nc3cccc4cccc(c34)NC2=O)c1 (centres undefined) | inconclusive: 106%
CC1(O)CC(=O)N(c2ccccc2)O1 (centres undefined) | inconclusive: 109%
CCOc1ccc(C(=O)c2ccc([N+](=O)[O-])cc2Cl)cc1 | inconclusive: 92%
O=C(CNCc1cccs1)Nc1ccc(N2CCCCCC2)cc1 | inactive: 96%
Cc1cc(N2CC(C(=O)O)CC2=O)ccc1Br (centres undefined) | inconclusive: 107%
Cc1csc(NC(=O)CNS(=O)(=O)c2cccs2)n1 | inconclusive: 108%
CCC(C)(C)NC(=O)C(c1cccnc1)N(CCOC)C(=O)Cn1nnc2ccccc21 (centres undefined) | inconclusive: 103%
COc1cc(/C=N/NC(=O)c2ccoc2C)cc(OC)c1O | inconclusive: 99%
COc1cc([N+](=O)[O-])cc(/C=N/NC(=O)c2ccc(NC(=O)c3ccc(C)cc3)cc2)c1O | active: 78%
C=CCNC(=S)/C(=C(/[O-])c1ccccc1Br)[n+]1ccccc1 | inconclusive: 95%
CCOc1ccc(NC(=O)CSc2nc3c([nH]c4ccccc43)c(=O)n2C)cc1 | inconclusive: 96%
CCc1ccc(NS(=O)(=O)c2ccc3[nH]cc(C(=O)N4CCc5ccccc54)c(=O)c3c2)cc1 | inactive: 93%
C/C(=N\NC(=O)OC(C)(C)C)c1ccc[nH]1 | inactive: 98%
Cc1cc(C)nc(NS(=O)(=O)c2ccc(N/C=C/C(=O)c3ccc(Cl)cc3)cc2)n1 | inactive: 98%
CN1CCN(c2ccccc2NC(=O)c2ccc(-c3cccc([N+](=O)[O-])c3)o2)CC1 | inactive: 106%
CCN(CC(=O)NC(C)C)C(=O)[C@H](C)NC(=O)c1ccc(Br)cc1 | inactive: 95%
CCc1ccc(C2=NN(S(C)(=O)=O)C(c3cccs3)C2)cc1 (centres undefined) | inconclusive: 111%

SMILES | GTP binding activity
CCc1cccc2c(C#N)cn(CC(=O)NCCOC)c12 | inconclusive: 93%
CCOC(=O)Nc1ccc(NC(=O)OCC)cc1 | inconclusive: 103%
COCCNC(=O)c1cc(S(=O)(=O)N2CCOCC2)ccc1SCc1cccc(OC)c1OC | inactive: 100%
CC1=Nn2c(nnc2-c2ccco2)SC1 | inactive: 99%
O=C(CN1C(=O)NC2(CCCCC2)C1=O)N1CCc2ccccc2C1 | inconclusive: 94%
COc1ccccc1OCCn1c(C(C)O)nc2ccccc21 (centres undefined) | inconclusive: 91%
COC1(OC)C(/C=C/c2ccc(C)cc2)C(C#N)(C#N)C1(OC)OC (centres undefined) | inconclusive: 103%
COc1ccc(-c2nc(Cc3ccc(Cl)cc3)no2)cc1OC | inconclusive: 101%
O=C(COc1cccc2ccccc12)Nc1cc(S(=O)(=O)N2CCOCC2)ccc1N1CCOCC1 | inactive: 98%
O=C(O)CCCCNS(=O)(=O)/C=C/c1ccccc1 | inconclusive: 99%
CCOC(=O)c1sc(NN=C(C(=O)OC)C(=O)OC)c(C(=O)OCC)c1C | inactive: 95%
Cc1nc2ncccn2c1-c1csc(Nc2ccccc2)n1 | active: 62%
Cc1ccc(S(=O)(=O)N2CCCCC2)cc1NC(=O)COC(=O)Cc1ccc(Cl)cc1 | inconclusive: 82%
Fc1ccc(-n2c(-c3ccc4ccccc4n3)n[nH]c2=S)cc1Cl | inconclusive: 91%
CCC(=O)N(c1ccc(C(=O)O)cc1)c1nc(-c2ccc(OC)cc2)c(C)s1 | inconclusive: 92%
COc1cc(/C=N/NC(=O)CSc2n[nH]c(=O)[nH]c2=O)cc(OC)c1O | inconclusive: 74%
O=C(NC1CC1)C1=C[C@H](c2ccc(C(F)(F)F)cc2)C[C@H](OCc2ccc(CO)cc2)O1 | inconclusive: 94%
COc1ccc2c(c1)C=C(C(=O)OCc1cccnc1)CO2 | inactive: 96%
O=C(O)c1cc2nc(-c3ccc(F)cc3)cc(C(F)(F)F)n2n1 | inconclusive: 88%
Cc1ccc2c(c1)c1c(n2CC(O)Cn2nc(C)c(Br)c2C)C(=O)CCC1 (centres undefined) | inconclusive: 89%
CCOC(=O)c1c(NC(=O)CSc2nnc(CNc3ccc(F)cc3)o2)sc(C)c1C | inconclusive: 104%
COCCN1C(=S)NC(c2cccc(C(F)(F)F)c2)C(C(=O)N2CCOCC2)=C1C (centres undefined) | inactive: 92%
